This is one part of the list.
Key:
Assay in all cases: glycan array binding signal (z-score within array); higher = stronger binding
Conditions in all cases: glycan notation: IUPAC condensed, linker removed
[1] = target: Gal(b1-4)GlcNAc(b1-3)Gal(b1-4)[Fuc(a1-3)]GlcNAc(b1-3)Gal(b1-4)[Fuc(a1-3)]GlcNAc
In short: (§1)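 From the Consortium for Functional Glycomics database, 3228 arrays were curated, keeping only those whose protein sequence was available. Binding is given as a within-array Z-score averaged across arrays sharing a protein sequence and across linkers. Negative Z-scores can be read as non-binding.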

[2] = target: Gal(b1-4)GlcNAc(b1-3)GalNAc
In short: as §1

[3] = target: Gal(b1-4)GlcNAc(b1-3)[Gal(b1-4)GlcNAc(b1-6)]Gal(b1-4)GlcNAc
In short: as §1

[4] = target: Gal(b1-4)GlcNAc(b1-3)[Gal(b1-4)GlcNAc(b1-6)]GalNAc
In short: as §1

[5] = target: Gal(b1-4)GlcNAc(b1-3)[GlcNAc(b1-6)]Gal(b1-4)GlcNAc
In short: as §1

[6] = target: Gal(b1-4)GlcNAc(b1-6)Gal(b1-4)GlcNAc
In short: as §1

[7] = target: Gal(b1-4)GlcNAc(b1-6)GalNAc
In short: as §1

[8] = target: Gal(b1-4)GlcNAc(b1-6)[Gal(b1-3)]GalNAc
In short: as §1

[9] = target: Gal3S(b1-3)GalNAc
In short: as §1

[10] = target: Gal3S(b1-3)GlcNAc
In short: as §1

[11] = target: Gal3S(b1-3)[Fuc(a1-4)]GlcNAc
In short: as §1

[12] = target: Gal3S(b1-4)Glc
In short: as §1

[13] = target: Gal3S(b1-4)Glc6S
In short: as §1

[14] = target: Gal3S(b1-4)GlcNAc
In short: as §1

[15] = target: Gal3S(b1-4)GlcNAc6S
In short: as §1

[16] = target: Gal3S(b1-4)[Fuc(a1-3)]Glc
In short: as §1

[17] = target: Gal3S(b1-4)[Fuc(a1-3)]Glc6S
In short: as §1

[18] = target: Gal3S4S(b1-4)GlcNAc
In short: as §1

[19] = target: Gal3S6S(b1-4)GlcNAc
In short: as §1

[20] = target: Gal3S6S(b1-4)GlcNAc6S
In short: as §1

[21] = target: Gal4S(b1-4)GlcNAc
In short: as §1

[22] = target: Gal4S6S(b1-4)GlcNAc
In short: as §1

[23] = target: Gal6S(b1-4)Glc
In short: as §1

[24] = target: Gal6S(b1-4)Glc6S
In short: as §1

[25] = target: Gal6S(b1-4)GlcNAc
In short: as §1

[26] = target: Gal6S(b1-4)GlcNAc6S
In short: as §1

[27] = target: GalNAc(a1-3)Gal
In short: as §1

[28] = target: GalNAc(a1-3)GalNAc
In short: as §1

[29] = target: GalNAc(a1-3)GalNAc(a1-3)Gal(a1-4)Gal(b1-4)GlcNAc
In short: as §1

[30] = target: GalNAc(b1-3)Gal
In short: as §1

[31] = target: GalNAc(b1-3)Gal(a1-4)Gal(b1-4)GlcNAc
In short: as §1

[32] = target: GalNAc(b1-3)Gal(a1-4)Gal(b1-4)GlcNAc(b1-3)Gal(b1-4)Glc
In short: as §1

[33] = target: GalNAc(b1-3)Gal(a1-6)Gal(b1-4)Glc
In short: as §1

[34] = target: GalNAc(b1-3)GalNAc
In short: as §1

[35] = target: GalNAc(b1-4)GlcNAc
In short: as §1

[36] = target: GalNAc(b1-4)GlcNAc(b1-2)Man(a1-3)[GalNAc(b1-4)GlcNAc(b1-2)Man(a1-6)]Man(b1-4)GlcNAc(b1-4)GlcNAc
In short: as §1

[37] = target: Glc(a1-4)Glc
In short: as §1

B1: Pp2-A2 (Arabidopsis thaliana), Q07098 (protein)
chain: MPSNGDLDRQIEQLMECKPLSEADVRTLCDQARAILVEEYNVQPVKCPVTVCGDIHGQFYDLIELFRIGGNAPDTNYLFMGDYVDRGYYSVETVSLLVALKVRYRDRLTILRGNHESRQITQVYGFYDECLRKYGNANVWKYFTDLFDYLPLTALIESQVFCLHGGLSPSLDTLDNIRSLDRIQEVPHEGPMCDLLWSDPDDRCGWGISPRGAGYTFGQDIAAQFNHNNGLSLISRAHQLVMEGFNWCQDKNVVTVFSAPNYCYRCGNMAAILEIGENMEQNFLQFDPAPRQVEPDTTRKTPDYFL
[1]
  glycan array binding signal (z-score): 0.048
[2]
  glycan array binding signal (z-score): -0.647
[3]
  glycan array binding signal (z-score): -0.413
[4]
  glycan array binding signal (z-score): -0.584
[5]
  glycan array binding signal (z-score): -0.305
[6]
  glycan array binding signal (z-score): -0.535
[7]
  glycan array binding signal (z-score): -0.378
[8]
  glycan array binding signal (z-score): -0.478
[9]
  glycan array binding signal (z-score): -0.167
[10]
  glycan array binding signal (z-score): -0.174
[11]
  glycan array binding signal (z-score): -0.536
[12]
  glycan array binding signal (z-score): 0.533
[13]
  glycan array binding signal (z-score): 3.5
[14]
  glycan array binding signal (z-score): 0.032
[15]
  glycan array binding signal (z-score): 3.57
[16]
  glycan array binding signal (z-score): 1.27
[17]
  glycan array binding signal (z-score): 4.36
[18]
  glycan array binding signal (z-score): 6.14
[19]
  glycan array binding signal (z-score): 2.2
[20]
  glycan array binding signal (z-score): 4.5
[21]
  glycan array binding signal (z-score): -0.312
[22]
  glycan array binding signal (z-score): 4.54
[23]
  glycan array binding signal (z-score): 1.48
[24]
  glycan array binding signal (z-score): 4.11
[25]
  glycan array binding signal (z-score): -0.117
[26]
  glycan array binding signal (z-score): 2.28
[27]
  glycan array binding signal (z-score): -0.744
[28]
  glycan array binding signal (z-score): -0.325
[29]
  glycan array binding signal (z-score): -0.626
[30]
  glycan array binding signal (z-score): -0.79
[31]
  glycan array binding signal (z-score): -0.619
[32]
  glycan array binding signal (z-score): -0.71
[33]
  glycan array binding signal (z-score): -0.622
[34]
  glycan array binding signal (z-score): -0.683
[35]
  glycan array binding signal (z-score): -0.398
[36]
  glycan array binding signal (z-score): -0.478
[37]
  glycan array binding signal (z-score): -0.06

From the supplement of paper PMC8728848
